Assay results from the supplement of paper PMC3334620.
Whole data set: some 33,000 sequences, median “E-score (-0.5 to 0.5)” near -0.054, cut for the highest 2% near 0.35. This is one part of the list.

What follows are sequences tested against T1, Stb5 (UniProt P38699) (assay: PBM E-score (8-mer binding enrichment) (E-score (-0.5 to 0.5)); higher = stronger / more preferred TF binding; most listed sequences are background and not binding sites). Conditions: protein concentration: 200 nM; construct: GST-full length.
T1 sequence: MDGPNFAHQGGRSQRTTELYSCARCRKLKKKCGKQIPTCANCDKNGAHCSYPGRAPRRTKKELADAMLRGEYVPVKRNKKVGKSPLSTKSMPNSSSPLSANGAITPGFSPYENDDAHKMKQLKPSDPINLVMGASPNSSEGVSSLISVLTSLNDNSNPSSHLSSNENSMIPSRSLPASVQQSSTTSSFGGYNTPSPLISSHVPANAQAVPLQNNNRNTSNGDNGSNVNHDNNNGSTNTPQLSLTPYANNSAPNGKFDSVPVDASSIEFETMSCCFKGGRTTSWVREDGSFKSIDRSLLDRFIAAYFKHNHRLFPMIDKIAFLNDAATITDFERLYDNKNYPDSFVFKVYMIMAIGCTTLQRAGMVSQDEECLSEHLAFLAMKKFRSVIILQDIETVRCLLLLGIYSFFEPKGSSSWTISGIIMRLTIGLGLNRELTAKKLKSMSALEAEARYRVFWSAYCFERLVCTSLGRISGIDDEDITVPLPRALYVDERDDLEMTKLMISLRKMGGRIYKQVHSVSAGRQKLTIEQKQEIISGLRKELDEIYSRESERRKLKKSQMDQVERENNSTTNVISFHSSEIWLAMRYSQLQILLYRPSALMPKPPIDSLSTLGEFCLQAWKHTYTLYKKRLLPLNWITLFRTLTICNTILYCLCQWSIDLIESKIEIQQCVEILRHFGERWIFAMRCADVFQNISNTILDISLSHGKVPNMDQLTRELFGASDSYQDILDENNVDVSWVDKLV
Description: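 Universal 'all 10-mer' protein binding microarrays (Agilent AMADID 015681) probed with GST-tagged S. cerevisiae TFs (full-length or DBD) made by in vitro transcription/translation (PURExpress), about 100-200 nM. Bound TF was detected with fluorescent anti-GST. Each ungapped 8-mer (which stands for itself and its reverse complement) is scored by the PBM enrichment score (E-score), a modified Wilcoxon-Mann-Whitney statistic from -0.5 to +0.5, computed with the Universal PBM Analysis Suite. Scale: above 0.35 generally sequence-specific binding.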

Sequence	PBM E-score
TAAGCTAA	0.00383
CTTTCGGC	0.184
CCTTCGTA	-0.0357
CACATCTG	-0.103
AAGTAAAC	0.0705
GTCGCCAC	-0.186
AAACAAAG	0.0786
ATGGATAC	-0.191
TCTGGTAA	0.025
GAGAGGCA	-0.131
AGGCACCG	0.328
CCACACCA	-0.256
TCATTTAA	-0.137
CGTGGCAA	-0.0429
CGATAGTC	-0.0519
AGAACTCT	-0.216
GTACCGAC	0.382
ATGCGGAA	0.154
CCACACGG	0.0636
GTCGTACA	-0.068
GAGATTTA	0.0902
CGGCACAG	0.11

Sequence	PBM E-score
AACACTAC	-0.17
AGAATCGC	0.232
CACTATGC	-0.0324
CCGCGAAA	0.236
ACGCCAAA	-0.162
CAAAGCTA	0.0075
AGCCGTGC	-0.0522
ACTTAATA	-0.0419
GGATTGAC	-0.0821
ATGAGGAG	-0.113
AGAAGCCA	-0.135
ATCGATGC	-0.0102
CCCGTCAC	0.281
GACGATAA	-0.0302
AGCGGCAT	0.401
AAATTTAT	-0.0756
CCGACTAG	0.297
CTTAATGA	-0.095
TTCACCAA	-0.0231
GTCCAGGA	-0.228
GCATTTCC	0.0245
AATCACGG	0.235

Sequence	PBM E-score
GATCTTCC	0.058
AGTATCAC	0.0424
CGCTACCC	-0.0254
CAACACTG	-0.305
CGTTCAGA	-0.159
CGGCGATA	0.463
AGTACAAA	-0.232
AAACTGCC	0.062
CGATAACA	0.191
ATTGCATA	-0.0781
ATGATGCA	-0.187
CCGCAGAG	0.0199
AACACGAG	-0.114
ACACAAAT	-0.0925
AAGCATGG	-0.088
ACTGATAT	-0.0693
AGCTAACC	0.0264
GATCGGAC	0.415
GTTACCCA	-0.115
ATATGCAC	-0.175
AGGTGGTC	-0.203
AAGTATCA	-0.126

Sequence	PBM E-score
ATCGTTGG	-0.205
ACCTGAGG	0.0237
GCGATAGA	0.13
AAGATTAC	0.0892
ACACGCGG	0.181
GCTACACC	0.0808
ATATAGCA	0.00261
CAAACCAA	-0.233
ACATGTAG	-0.11
GCCTGGAA	-0.338
AGACTATA	-0.0559
AATTTCCT	-0.191
CAGGATCC	-0.0743
TTAGAGAA	-0.327
CACGGACG	0.147
CGCTTGCC	0.00486
CAATTAAA	-0.00358
CGACGTCA	-0.19
AGTAAACC	0.165
CGGACACA	0.356
ACCGAAGT	0.108
GGGAGGAC	-0.126

Sequence	PBM E-score
ATGCCTCC	0.105
CCCTCAGA	-0.174
AATAGTCC	0.335
GAACCCCC	0.07
CTAGAATC	-0.0612
GCTTGGCC	0.143
CTGTCACC	0.0942
CATGTCAG	-0.276
CTTTAAAG	-0.176
GAAGCCTA	0.00672
AGTTGACG	0.0184
GATCAAAC	-0.0286
AGTGAGCC	-0.0796
CATCACTC	-0.0848
TCAGCCCA	-0.195
ATCGTCAT	-0.187
CACTAACA	-0.0592
ACACGAAC	0.069
CGTTTCAC	-0.027
CCTTCAAC	-0.248
CCCGTACG	0.121
CCTGCCTC	-0.158
